According to the supplement of paper PMC8512760:
This is one part of the list. Single values are uncertain, as repeats are few or missing.

System: HCC-1143
Assay: cell viability relative to vehicle (% of vehicle); basal-like triple-negative breast cancer lines; higher = less cytotoxic
Details: 10 µM; 72 h
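Also: stably firefly luciferase-GFP labeled cells in 96-well plates, viability read as luciferase photon flux after d-luciferin addition, treated wells normalized to vehicle wells, single-dose high-throughput screen.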

| Structure (SMILES) | cell viability |
| --- | --- |
| O=CC(O)C(O)C(O)CO (centres undefined) [Xylose] | 96.7 |
| O=C(NS(=O)(=O)c1ccc(Br)s1)c1ccc(Cl)cc1Cl [Tasisulam] | 66.4 |
| Cn1nnc2c(C(N)=O)ncn2c1=O [Temozolomide] | 86.7 |
| CC(C(=O)O)c1ccc2c(c1)Cc1cccnc1O2 (centres undefined) [Pranoprofen] | 107 |
| N.N.[Cl][Pt+2][Cl] [Cisplatin] | 91.4 |
| COc1ccccc1N1CCN(CCCNc2cc(=O)n(C)c(=O)n2C)CC1.Cl [Urapidil HCl] | 94.8 |
| Nc1ncnc2c1ncn2C1OC(CO)C(O)C1O (centres undefined) [Vidarabine] | 94.5 |
| CCOC(=O)C(CCc1ccccc1)NC(C)C(=O)N1CCCC1C(=O)O.O=C(O)C=CC(=O)O (centres undefined) [Enalapril Maleate] | 126 |
| CNC1CCC(c2ccc(Cl)c(Cl)c2)c2ccccc21.Cl (centres undefined) [Sertraline HCl] | 66.7 |
| CC(Cn1cnc2c(N)ncnc21)OCP(=O)(O)O (centres undefined) [Tenofovir] | 84.9 |
| CS(=O)(=O)CCNCc1ccc(-c2ccc3ncnc(Nc4ccc(OCc5cccc(F)c5)c(Cl)c4)c3c2)o1.Cc1ccc(S(=O)(=O)O)cc1.Cc1ccc(S(=O)(=O)O)cc1 [Lapatinib Ditosylate] | 98.6 |
| CC(C)CC(NC(=O)C(NC(=O)c1cccc(-c2ccccc2)n1)C(C)O)B(O)O (centres undefined) | 21.5 |
| CN(C)CCC=C1c2ccccc2Sc2ccc(Cl)cc21 [Chlorprothixene] | 81.3 |
| Nc1ccn(C2CSC(CO)O2)c(=O)n1 (centres undefined) [Lamivudine] | 111 |
